Experimental findings from PubChem BioAssay AID1508642 (National Center for Advancing Translational Sciences (NCATS), 2021) are described below.

Hit rate of the full screen: of about 43,000 compounds, about 200 (0.47%) were called active. About 12% were inconclusive and are not listed. The call rests on the fitted dose curve; in most records, active means well fitted cell-killing curve with a large enough effect; inconclusive means small, poorly fitted or top-dose-only effect, or effect the other way; inactive means flat fitted curve, though single readings scatter. The list shows a part of the results.
On the % scale 0 is the no-effect control and ±100 the full control effect.

A short description of this experiment: Cell viability qHTS assay in S16 Pmp22-F2sN cells. Further: nearly all actives have a fitted effect of over 65% in size. The conditions noted are these: S16 Pmp22-F2sN Schwann cells (luciferase reporters placed in the Pmp22 gene) viability, CellTiter-Glo, 24 h; series mostly up to 57.5 µM; activity change, negative = cytotoxicity: at the top concentration. Put shortly: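 Rat S16 Schwann reporter line, 24 h treatment with library compounds delivered at 23 nL per well. Cell viability by CellTiter-Glo luminescence.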
In general terms: Quantitative high-throughput screening tests each substance at several concentrations.
As to `Cc1c(Cl)cccc1NC(=O)c1ccc(NC(=O)N2CCSc3ncccc32)cc1`, the “activity change, negative = cytotoxicity” value was inactive: -4.81%.
Under `Cc1ccccc1NC(=O)CS(=O)(=O)c1cccc2nsnc12` stands inactive: 2.23%; under `CCc1c(C)sc2c1CCN(C(=O)Nc1ccccc1C(=O)OC)C2c1ccc(F)cc1` (stereo not drawn), inactive: 9.78%; under `CCNC(=O)c1c(NC(=O)COc2ccc(F)cc2)sc2c1CCCC2`, inactive: 6.74%.
Under `O=C(Nc1ccc(Br)cc1)N1CCC(CN2CCCC2)CC1` stands inactive: 4.14%; under `Cc1ccc(NC(=O)c2ccc(=O)n(CC(=O)Nc3c(C)cc(C)cc3C)n2)cc1`, inactive: 3.65%; under `Cc1ccc(COc2ccc3oc(-c4ccccc4)c(C(=O)O)c3c2)cc1`, inactive: 4.27%.
Next, `COc1ccc(/C=C/C(=O)N2CCC(c3nc4ccccc4o3)CC2)cc1OC`: inactive: -7.33%.
Consider `COc1ccc(OCC(=O)N2CCN(C(=O)c3cc(OC)c(OC)c(OC)c3)CC2)cc1`, for which the “activity change, negative = cytotoxicity” value was inactive: 26.3%.
Take `CCOc1ccc(C2N3CC4(C(C)C)CN2CC(C(C)C)(C3)C4=O)cc1OC` (stereo not drawn): the “activity change, negative = cytotoxicity” value was inactive: 9.18%.
Next, `CCOc1ccccc1NC(=O)N(C)CCc1c(C)nn(CC)c1C`: inactive: -2.27%.
For the molecule `CC(C)(C)c1ccc(C(=O)NNc2ncnc3c2cnn3-c2ccccc2)cc1`, the “activity change, negative = cytotoxicity” value was inactive: -3%.
Under `O=C(COc1ccccc1)NCC(c1cccs1)S(=O)(=O)c1ccc(Cl)cc1` (stereo not drawn) stands inactive: 4.42%.
Next, `COc1cccc(C(=O)Nc2ccc(-n3nncc3-c3ccc(Br)cc3)cc2)c1OC`: inactive: -3.95%; `Cc1cc(C)n2c(Nc3ccccc3C)c(-c3cccs3)nc2n1`: inactive: 1.01%; `COc1ccc(-n2nc(C(=O)Nc3ccc(Br)cc3C)c3c4ccccc4n(C)c3c2=O)cc1`: inactive: 1.95%.
Under `COc1ccc(C(=O)N2CC(=O)Nc3ccc(C)cc3C2c2ccccc2)cc1OC` (stereo not drawn) stands inactive: -0.596%; under `Cc1ccc(CN2C(=O)c3ccccc3Sc3ccc(C(=O)NCc4ccco4)cc32)cc1`, inactive: -8.16%.
Turning to `COc1ccc(C(=O)NCC(c2ccc3c(c2)OCO3)N2CCOCC2)cc1` (stereo not drawn), the “activity change, negative = cytotoxicity” value was inactive: 11.8%.
With `Cc1ccc(S(=O)(=O)N(CC(O)Cn2c3ccccc3c3ccccc32)c2cccc(C(=O)N(C)C)c2)cc1` (stereo not drawn), the “activity change, negative = cytotoxicity” value was inactive: -19.2%.
`COc1ccc(C2=NN(S(C)(=O)=O)C(c3cn(-c4ccccc4)nc3-c3cccs3)C2)cc1` (stereo not drawn): the “activity change, negative = cytotoxicity” value was inactive: -2.65%.
`Cc1ccc(-c2nc3ccccn3c2Nc2ccc3c(c2)OCCO3)s1`: the “activity change, negative = cytotoxicity” value was inactive: 17.5%.
For the molecule `O=C(Cc1ccc(NC(=O)N2CCSc3ncccc32)cc1)NCc1ccccc1`, the “activity change, negative = cytotoxicity” value is inactive: 1.28%.
Under `Cc1cc(C)cc(NC(=O)Cn2c(=O)n(C(C)C)c(=O)c3oc4ccccc4c32)c1` stands inactive: 10%.
Under `Cc1oc2ncnc(N3CCOCC3)c2c1C(=O)N1CCN(c2cccc(C(F)(F)F)c2)CC1` stands inactive: 2.86%.
Take `COc1cccc(-c2ccnc3c(-c4ccc(F)cc4)c(C)nn23)c1`: the “activity change, negative = cytotoxicity” value was inactive: 22.1%.
Take `CCCn1c(=N)c(C(=O)NCc2cccnc2)cc2c(=O)n3cccc(C)c3nc21`: the “activity change, negative = cytotoxicity” value is inactive: 29.8%.
`COc1ccc(NC(=O)C2=C(C)Nc3ncnn3C2c2ccc(C)o2)cc1` (stereo not drawn): the “activity change, negative = cytotoxicity” value is inactive: 7.29%.
As to `CCN(C(=O)C1CCC(CNS(=O)(=O)c2cccc3nsnc23)CC1)c1ccccc1` (stereo not drawn), the “activity change, negative = cytotoxicity” value was inactive: -23.8%.
On to `CC1(C)CC(=O)c2cc(C(=O)Nc3ccc(Br)cc3)c(=O)[nH]c2C1`, for which the “activity change, negative = cytotoxicity” value is inactive: 0.302%.
With `CCN(C(=O)C1CCC(CNS(=O)(=O)c2cccc3nsnc23)CC1)c1cccc(C)c1` (stereo not drawn), the “activity change, negative = cytotoxicity” value is inactive: -10.2%.
Next, `O=C(COc1ccc(Cl)cc1)N(Cc1ccco1)c1ccccn1`: inactive: -2.85%.
Under `Cc1cc(C)c(NS(=O)(=O)c2ccc3c(c2)NC(=O)CCS3)c(C)c1` stands inactive: 19.6%; under `CCOC(=O)c1cc(-c2ccccc2)n(CC(=O)Nc2cc(Cl)c(OC)cc2OC)c1C`, inactive: -22.8%.
As for `Cc1cc(C)cc(Nc2ncnc3sc4c(c23)CCCC4)c1`, the “activity change, negative = cytotoxicity” value is inactive: 12.8%.
As to `Cc1cccc(Cn2c(CNC(=O)c3ccccc3)nc3ccccc32)c1`, the “activity change, negative = cytotoxicity” value was inactive: 1.94%.
Under `Cc1ccn2c(Nc3ccc(C(C)C)cc3)c(-c3ccsc3)nc2c1` stands inactive: 5.05%; under `CC(C)OCCCNC(=O)c1c2c(nc3ccccc13)C(=O)N(C1CCCCC1)C2`, inactive: 4.1%.
Consider `CCCCCOc1ccccc1Cn1c(=O)oc2ccc(C)cc21`, for which the “activity change, negative = cytotoxicity” value was inactive: -0.787%.
Next, `Cc1nn(C(C)C(=O)Nc2cccc(F)c2)c(=O)c2c1sc1ccccc12` (stereo not drawn): inactive: -0.882%; `COCCNC(=O)CCSc1nc(-c2ccc(OC)cc2)cc(C(F)(F)F)n1`: inactive: 27.8%.
Next, `Cc1ccc(Nc2c(-c3ccc(N4CCOCC4)cc3)nc3ncccn23)c(C)c1`: inactive: 0.765%; `Cc1cccc(-c2nc(S(=O)(=O)c3ccccc3)c(N3CCN(c4ccccc4)CC3)o2)c1`: inactive: 4.72%; `CSc1ccc(-c2nc3cc(C)ccn3c2Nc2ccc(C)cc2)cc1`: inactive: -2.34%.
Under `CCc1ccc(NC(=O)C(=O)NCCc2sc(-c3ccc(C)cc3)nc2C)cc1` stands inactive: 3.51%; under `O=C(CSc1nc2c(c(=O)[nH]1)CCC2)Nc1cc(C(F)(F)F)ccc1Cl`, inactive: -2.68%.
With `Cc1ccc(C(=O)c2cn(Cc3ccccc3)c3cc4c(cc3c2=O)OCCO4)cc1`, the “activity change, negative = cytotoxicity” value is inactive: 0.515%.
With `CCc1cccc(NC(=O)CSc2nccn2C)c1`, the “activity change, negative = cytotoxicity” value is inactive: 0.372%.
Consider `CCOC(=O)c1cc(S(=O)(=O)Nc2cc(C)c(Cl)cc2OC)[nH]n1`, for which the “activity change, negative = cytotoxicity” value is inactive: -4.13%.
Under `Cn1ccc2c(OCC(=O)NCc3ccc(F)cc3)cccc2c1=O` stands inactive: -3.93%; under `CCCCn1c(C2CC(=O)N(c3ccc(OCC)cc3)C2)nc2ccccc21` (stereo not drawn), inactive: 3.86%; under `O=C(OCC1CCCO1)c1ccc2c(c1)N(Cc1c(F)cccc1Cl)C(=O)c1ccccc1S2(=O)=O` (stereo not drawn), inactive: 8.78%.
Consider `CCc1nnc(NC(=O)c2nc(SCc3ccc(F)cc3)ncc2Cl)s1`, for which the “activity change, negative = cytotoxicity” value is inactive: 12.4%.
Next, `CCOc1ccc(OCC)c(NS(=O)(=O)c2ccc3c(c2)CCCN3C(C)=O)c1`: inactive: 0.949%; `CCC(C(=O)NC1CCCCC1)n1nc(C)c2sc3ccccc3c2c1=O` (stereo not drawn): inactive: 2.32%; `O=C(Nc1ccccc1C(F)(F)F)C1CCN(c2nnc(-n3cccc3)s2)CC1`: inactive: -5.64%.
Under `Cc1ccc(Cl)cc1N1CCN(C(=O)c2cnc3c(-c4ccc(F)cc4)c(C)nn3c2C)CC1` stands inactive: 2.39%; under `O=C(Cn1cc(SCc2ccc(F)cc2)c2ccccc21)N1CCCC1`, inactive: -0.86%; under `CCN(CC)S(=O)(=O)c1ccc2c(c1)c(=O)c(C(=O)N1CCN(c3cc(C)ccc3C)CC1)cn2C`, inactive: 1.7%.
For the molecule `CCOCCn1c(=NC(=O)c2ccc3c(c2)OCCO3)sc2cc(OCC)ccc21`, the “activity change, negative = cytotoxicity” value was inactive: 11.6%.
Consider `Cc1cc(C)c(NC(=O)c2ccc3nc(C(C)C)oc3c2)c(C)c1`, for which the “activity change, negative = cytotoxicity” value was inactive: -4.27%.
Consider `COCC(C)NC(=O)C1=CC(c2ccc3c(c2)OCO3)=NS(=O)(=O)N1C` (stereo not drawn), for which the “activity change, negative = cytotoxicity” value is inactive: 1.03%.
Turning to `O=S(=O)(c1ccc2nc(Nc3ccc(Br)cc3F)ccc2c1)N1CCCC1`, the “activity change, negative = cytotoxicity” value was inactive: 11.5%.
Next, `O=C(Cn1nc2c(cc1=O)CCCC2)NCc1ccccc1`: inactive: -0.916%.
In the case of `COc1ccc(-n2nc(C(=O)N3CCN(c4cccc(C)c4)C(C)C3)c3c4ccccc4n(C)c3c2=O)cc1Cl` (stereo not drawn), the “activity change, negative = cytotoxicity” value is inactive: 2.22%.
Next, `COc1cccc(-n2c(=O)c3c4c(sc3n(Cc3ccccc3C#N)c2=O)CCCC4)c1`: inactive: 0.166%; `Cc1ccccc1-c1noc(-c2ccc(NC3CCCC3)c([N+](=O)[O-])c2)n1`: inactive: 0.291%.
In the case of `CN(C(=O)CSc1nc2ccc(NC(=O)c3ccccc3)cc2s1)c1ccccc1`, the “activity change, negative = cytotoxicity” value is inactive: -13.1%.
For the molecule `O=C(CSc1oc(-c2cccs2)nc1S(=O)(=O)c1ccccc1)Nc1ccc(F)cc1`, the “activity change, negative = cytotoxicity” value is inactive: 6.38%.
Next, `Cc1ccc(C2=NN(CCC(=O)NCCc3cccc(C)c3)C(=O)CC2)cc1`: inactive: -22.8%; `COc1ccc(Cn2c(NCC(C)C)nc3c2c(=O)n(C)c(=O)n3C)cc1`: inactive: 5.03%; `Cc1ccc(-n2nc(C)c3c(C(=O)Nc4ccc(C)cc4Cl)cc(C)nc32)cc1`: inactive: 14.4%.
For `COc1cc(CN(C(=O)c2ccc(C)cc2)c2ccccn2)cc(OC)c1OC`, the “activity change, negative = cytotoxicity” value is inactive: -19.6%.
Next, `CCOC(=O)CSc1nc(-c2ccc(OC)cc2)cc(C(F)(F)F)c1C#N`: inactive: -1.76%.
Next, `CC(=O)Nc1cccc(-c2nnc(SCC(=O)c3ccc([N+](=O)[O-])cc3)o2)c1`: inactive: 21.7%.
Next, `COc1ccc(OC)c(CNC(=O)c2cnc(N(C)C)nc2)c1`: inactive: 5.53%.
Turning to `CCOc1ccccc1/C=C/c1onc(C)c1S(=O)(=O)N1CCC(C(=O)N2CCCCC2)CC1`, the “activity change, negative = cytotoxicity” value was inactive: -9%.
Take `CCc1ccccc1NS(=O)(=O)c1ccc2[nH]cc(C(=O)NC3CCCC3)c(=O)c2c1`: the “activity change, negative = cytotoxicity” value was inactive: -9.68%.
Under `CCOc1ccc(CCNC(=O)CCn2c(=O)c3cccn3c3ccc(F)cc32)cc1` stands inactive: -0.0781%; under `Cc1ccc(NC(=O)Cn2nc(C(F)(F)F)c3c2CCC3)cc1C`, inactive: 7.6%; under `O=C(Nc1ccc(OCc2cc(=O)n3c4c(sc3n2)CCCC4)cc1)c1ccc(F)cc1`, inactive: 1.53%.
Take `COC(=O)Cc1c(C)c2ccc3c(c2oc1=O)CN(Cc1ccc(C)cc1)CO3`: the “activity change, negative = cytotoxicity” value was inactive: -0.592%.
Take `Cc1ccccc1-c1noc(CSc2nc(-c3ccc(F)cc3)cc(=O)[nH]2)n1`: the “activity change, negative = cytotoxicity” value was inactive: -0.596%.
On to `COc1ccc(-n2nnnc2SCC(=O)NCCc2ccccc2)cc1`, for which the “activity change, negative = cytotoxicity” value is inactive: -3.44%.
Next, `CCc1ccc(N2CC(c3nc4ccccc4n3Cc3ccccc3C)CC2=O)cc1` (stereo not drawn): inactive: -15.3%.
Regarding `CCOc1ccc(C(=O)NCCc2sc(-c3cccc(F)c3)nc2C)cc1OCC`, the “activity change, negative = cytotoxicity” value was inactive: -0.994%.
Next, `Cc1cccc(CNC(=O)CCCN2C(=O)c3cccnc3Oc3ccccc32)c1`: inactive: -2.01%; `COc1ccc(-c2noc(-c3ccc(NCc4ccco4)c([N+](=O)[O-])c3)n2)cc1OC`: inactive: 19%; `Cc1ccc(NC(=O)CCCN2C(=O)COc3ccc(C)cc32)c(Cl)c1`: inactive: -9.42%.
For `CCC1Oc2ccc(C)cc2N(CC(=O)NCCc2ccccc2)C1=O` (stereo not drawn), the “activity change, negative = cytotoxicity” value was inactive: 9.73%.
Next, `CCOC(=O)c1cnc2ccc(OC(F)(F)F)cc2c1Nc1ccccc1C(=O)O`: inactive: -0.236%; `O=C(Nc1cccc(C(F)(F)F)c1)C1CCN(S(=O)(=O)c2cccc3nsnc23)CC1`: inactive: 16.9%; `O=C(Nc1ccc(OC(F)(F)F)cc1)C(Cc1ccccc1)NS(=O)(=O)c1cccc2nsnc12` (stereo not drawn): inactive: -19.2%.
Under `CC(C)Cc1nn2c(=O)cc(COC(=O)CNC(=O)c3ccc(C(C)(C)C)cc3)nc2s1` stands inactive: -17.5%; under `Cc1ccc(C)c(CNC(=O)c2ccc3c(c2)nc2n3CCOC2)c1`, inactive: 14.3%.
Under `Cc1ccc(S(=O)(=O)c2nnn3c2nc(NCc2ccc4c(c2)OCO4)c2sccc23)cc1` stands inactive: -13%; under `CCOC(=O)c1c(Nc2ccc(O)cc2)nnc(-c2ccccc2)c1-c1ccccc1`, inactive: 5.32%; under `COC(=O)c1ccc(C2c3c(oc4ccc(C)cc4c3=O)C(=O)N2Cc2ccc3c(c2)OCO3)cc1` (stereo not drawn), inactive: -0.896%.
